Measured values published in PMC3688683, “The N-Terminal Domains of Vps3 and Vps8 Are Critical for Localization and Function of the CORVET Tethering Complex on Endosomes” (PLoS ONE, 2013).
These are yes or no findings as the source states them, for the method shown. Binding seen in cells or lysates may run through a third protein. Some entries that bind do so weakly or less than the wild type. Tags and fused reporters may be left off the sequences shown.

The chains behind the UniProt entries cited, without tags or fusion partners.
UniProt P12868: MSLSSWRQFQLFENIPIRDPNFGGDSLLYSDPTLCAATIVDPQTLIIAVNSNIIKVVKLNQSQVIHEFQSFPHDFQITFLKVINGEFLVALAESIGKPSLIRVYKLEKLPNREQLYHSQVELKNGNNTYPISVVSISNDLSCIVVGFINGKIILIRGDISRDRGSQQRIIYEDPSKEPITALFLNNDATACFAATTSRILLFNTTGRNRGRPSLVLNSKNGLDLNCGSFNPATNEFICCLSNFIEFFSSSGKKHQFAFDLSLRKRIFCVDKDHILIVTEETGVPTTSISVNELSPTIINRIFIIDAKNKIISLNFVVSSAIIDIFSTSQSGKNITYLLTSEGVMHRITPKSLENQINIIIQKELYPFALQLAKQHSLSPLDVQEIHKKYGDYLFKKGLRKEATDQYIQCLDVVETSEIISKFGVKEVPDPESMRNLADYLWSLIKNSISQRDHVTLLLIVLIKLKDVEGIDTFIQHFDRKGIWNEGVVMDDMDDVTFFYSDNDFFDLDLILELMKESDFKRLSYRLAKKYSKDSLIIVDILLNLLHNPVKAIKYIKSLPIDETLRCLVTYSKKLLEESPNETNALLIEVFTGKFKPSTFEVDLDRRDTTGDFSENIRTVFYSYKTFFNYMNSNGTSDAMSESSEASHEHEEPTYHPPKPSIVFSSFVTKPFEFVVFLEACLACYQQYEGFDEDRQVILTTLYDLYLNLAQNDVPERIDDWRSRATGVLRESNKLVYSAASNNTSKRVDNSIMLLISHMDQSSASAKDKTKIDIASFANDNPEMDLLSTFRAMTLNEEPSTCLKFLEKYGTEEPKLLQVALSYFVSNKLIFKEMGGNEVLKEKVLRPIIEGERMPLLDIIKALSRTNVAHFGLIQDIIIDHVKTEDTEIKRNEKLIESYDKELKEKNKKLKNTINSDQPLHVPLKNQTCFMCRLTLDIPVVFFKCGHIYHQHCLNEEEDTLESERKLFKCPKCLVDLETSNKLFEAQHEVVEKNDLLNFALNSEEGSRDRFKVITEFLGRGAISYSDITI

Legend:
[1] = target: T1, Vps3ΔC-TAP (N-terminal domain of Vps3, up to residue 426, C-terminal TAP tag) (yeast (genomic locus of BY4733 strains)) (UniProt P23643); test: co-IP; small-scale TAP purification: C-terminally TAP-tagged Vps8 or Vps3 (full-length or truncated) captured from yeast lysate (50 mM HEPES/KOH pH 7.4, 300 mM NaCl, 0.15% NP-40, 2 mM MgCl2, 1 mM DTT) on IgG beads, 1.5 h at 4°C; eluted with glycine pH 2.5 or TEV protease; Western blot with anti-Cbp, anti-HA, anti-Vps11; also with overproduced Vps8ΔN and from vps21Δ and vps21Δ ypt52Δ ypt53Δ ypt7Δ strains
T1 sequence: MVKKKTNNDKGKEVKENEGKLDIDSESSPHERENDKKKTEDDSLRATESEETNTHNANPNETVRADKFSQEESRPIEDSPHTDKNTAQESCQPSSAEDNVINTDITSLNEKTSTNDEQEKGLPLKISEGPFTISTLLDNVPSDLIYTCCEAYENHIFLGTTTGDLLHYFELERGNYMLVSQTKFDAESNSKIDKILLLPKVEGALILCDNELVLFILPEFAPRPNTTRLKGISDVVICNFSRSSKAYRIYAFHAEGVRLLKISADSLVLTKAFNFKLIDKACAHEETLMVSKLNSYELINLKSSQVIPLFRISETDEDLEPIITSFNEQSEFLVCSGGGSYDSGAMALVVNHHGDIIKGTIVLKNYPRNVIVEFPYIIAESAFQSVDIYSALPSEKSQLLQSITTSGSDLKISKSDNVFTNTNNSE

[2] = target: T2, Vps3ΔN-TAP (C-terminal domain of Vps3, from residue 427, C-terminal TAP tag) (yeast (genomic locus of BY4741/BY4733 strains)) (UniProt P23643); test: as above
T2 sequence: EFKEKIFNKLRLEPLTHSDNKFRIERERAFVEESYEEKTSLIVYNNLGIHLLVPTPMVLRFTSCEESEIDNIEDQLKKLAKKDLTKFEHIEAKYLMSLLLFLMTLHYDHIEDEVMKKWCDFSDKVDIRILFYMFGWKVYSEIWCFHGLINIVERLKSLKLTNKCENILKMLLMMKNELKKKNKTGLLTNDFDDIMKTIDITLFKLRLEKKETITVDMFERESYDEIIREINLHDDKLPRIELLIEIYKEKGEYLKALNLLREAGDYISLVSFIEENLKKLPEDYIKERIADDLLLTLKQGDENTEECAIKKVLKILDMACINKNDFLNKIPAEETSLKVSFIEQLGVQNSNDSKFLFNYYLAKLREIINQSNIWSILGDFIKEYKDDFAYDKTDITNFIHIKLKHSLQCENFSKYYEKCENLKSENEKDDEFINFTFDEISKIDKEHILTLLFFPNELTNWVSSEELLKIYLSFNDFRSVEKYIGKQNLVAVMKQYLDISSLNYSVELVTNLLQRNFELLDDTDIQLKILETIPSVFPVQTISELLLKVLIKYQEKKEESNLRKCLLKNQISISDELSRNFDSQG

binding [1]: no binding
binding [2]: binds
Substance: Vps11 (from UniProt P12868 1-1029)
